Experimental findings from patent US12479847B2 (DANA-FARBER CANCER INSTITUTE, INC., priority 2019, dated 2025) are described below.

In the assay the target is human LRRK2(G2019S) kinase (Homo sapiens, UniProt Q5S007, G2019S). Put plainly: biochemical. Here is the method: Assay kits from Promega™ Corporation were used according to instructions and adapted as outlined herein. Test compounds were generally prepared with 1:3 serial dilutions for 12 concentrations (from 50 μM to 0.01 nM) ATP competition experiments. The kinase reaction was performed with kinase reaction buffer (40 mM Tris base pH 7.4, 20 mM MgCl2, 0.5 mM dithiothreitol), 0.1 mg/ml bovine serum albumin, distilled H2O). The reaction mixtures contained Pure ATP solution (10 μM), specific substrate (0.2 μg), and (human LRRK2 kinase (25 ng)) or (human LRRK2(G2019S) kinase (16 ng)), in a total assay volume of 5 μl after the manufacturer's protocol. In brief, the kinase reactions were started by addition of ATP to the kinase reaction mixture. The resulting mixture was incubated for 60 minutes at 25° C., and then stopped by adding 5 μl of ADP-Glo™ reagent. After incubation at room temperature in the dark for 40 minutes, 10 μl of kinase detection reagent was added per well, and the mixture was incubated for 10 minutes. Luminescence was measured using a Synergy™NEO2 plate reader (BioTek®) with an integration time of 1 second per well. Positive and negative controls were performed in 0.5% DMSO in the presence and absence of LRRK2 kinases. Curve fitting and data presentations were performed using GraphPad Prism version 5.0 (GraphPad Software, Inc.). The LRKK2 and LRRK2(G2019S) assay with inventive compounds 1-64 are summarized in the table below (Table 1), wherein: […]
One may read the IC50 as the concentration that inhibits the measured activity by half. Turning to `O=C(c1ccc(Nc2nc(NC3CC3)c3c(Cl)c[nH]c3n2)c2c1OCCO2)N1CCOCC1` [Compound 27, (8-((5-chloro-4-(cyclopropylamino)-7H-pyrrolo[2,3-d]pyrimidin-2-yl)amino)-2,3-dihydrobenzo[b][1,4]dioxin-5-yl)(morpholino)methanone], the IC50 was below 10 nM.
In the case of `COc1cc(S(=O)(=O)N2CCC(N3CCOCC3)CC2)ccc1Nc1nc(NC2CCC2)c2c(Cl)c[nH]c2n1` [Compound 28, 5-chloro-N4-cyclobutyl-N2-(2-methoxy-4-((4-morpholinopiperidin-1-yl)sulfonyl)phenyl)-7H-pyrrolo[2,3-d]pyrimidine-2,4-diamine] it was 100 to 1000 nM; in that of `COc1cc(S(C)(=O)=O)ccc1Nc1nc(NC2CCC2)c2c(Cl)c[nH]c2n1` [Compound 29, 5-chloro-N4-cyclobutyl-N2-(2-methoxy-4-(methylsulfonyl)phenyl)-7H-pyrrolo[2,3-d]pyrimidine-2,4-diamine], 100 to 1000 nM; in that of `O=C(c1ccc(Nc2nc(NC3CCC3)c3c(Cl)c[nH]c3n2)c2c1OCCO2)N1CCOCC1` [Compound 30, (8-((5-chloro-4-(cyclobutylamino)-7H-pyrrolo[2,3-d]pyrimidin-2-yl)amino)-2,3-dihydrobenzo[b][1,4]dioxin-5-yl)(morpholino)methanone], below 10 nM.
In the case of `COc1cc(S(=O)(=O)N2CCOCC2)ccc1Nc1nc(NCC(C)C)c2c(Cl)c[nH]c2n1` [Compound 31, 5-chloro-N4-isobutyl-N2-(2-methoxy-4-(morpholinosulfonyl)phenyl)-7H-pyrrolo[2,3-d]pyrimidine-2,4-diamine] it was 100 to 1000 nM; in that of `COc1cc(S(C)(=O)=O)ccc1Nc1nc(NCC(C)C)c2c(Cl)c[nH]c2n1` [Compound 32, 5-chloro-N4-isobutyl-N2-(2-methoxy-4-(methylsulfonyl)phenyl)-7H-pyrrolo[2,3-d]pyrimidine-2,4-diamine], 100 to 1000 nM; in that of `COc1cc(S(=O)(=O)N2CCOCC2)ccc1Nc1nc(NCC2CCCC2)c2c(Cl)c[nH]c2n1` [Compound 45, 5-chloro-N4-(cyclopentylmethyl)-N2-(2-methoxy-4-(morpholinosulfonyl)phenyl)-7H-pyrrolo[2,3-d]pyrimidine-2,4-diamine], above 1000 nM.
Turning to `O=C(c1ccc(Nc2nc(NCC3CCCC3)c3c(Cl)c[nH]c3n2)c2c1OCCO2)N1CCOCC1` [Compound 46, (8-((5-chloro-4-((cyclopentylmethyl)amino)-7H-pyrrolo[2,3-d]pyrimidin-2-yl)amino)-2,3-dihydrobenzo[b][1,4]dioxin-5-yl)(morpholino)methanone], the IC50 is 100 to 1000 nM.
Take `CC[C@@H](C)Nc1nc(Nc2ccc(S(=O)(=O)N3CCOCC3)cc2OC)nc2[nH]cc(Cl)c12` [Compound 47, (R)—N4-(sec-butyl)-5-chloro-N2-(2-methoxy-4-(morpholinosulfonyl)phenyl)-7H-pyrrolo[2,3-d]pyrimidine-2,4-diamine]: the half-inhibitory concentration (IC50) fell in the range of 100 to 1000 nM.
With `CC[C@@H](C)Nc1nc(Nc2ccc(S(=O)(=O)N3CCC(N4CCOCC4)CC3)cc2OC)nc2[nH]cc(Cl)c12` [Compound 48, (R)—N4-(sec-butyl)-5-chloro-N2-(2-methoxy-4-((4-morpholinopiperidin-1-yl)sulfonyl)phenyl)-7H-pyrrolo[2,3-d]pyrimidine-2,4-diamine], the concentration for half-maximal inhibition (IC50) lay within 100 to 1000 nM.
For `CC[C@@H](C)Nc1nc(Nc2ccc(S(C)(=O)=O)cc2OC)nc2[nH]cc(Cl)c12` [Compound 49, (R)—N4-(sec-butyl)-5-chloro-N2-(2-methoxy-4-(methylsulfonyl)phenyl)-7H-pyrrolo[2,3-d]pyrimidine-2,4-diamine], the IC50 is 100 to 1000 nM.
Take `CC[C@@H](C)Nc1nc(Nc2ccc(C(=O)N3CCOCC3)c3c2OCCO3)nc2[nH]cc(Cl)c12` [Compound 50, (R)-(8-((4-(sec-butylamino)-5-chloro-7H-pyrrolo[2,3-d]pyrimidin-2-yl)amino)-2,3-dihydrobenzo[b][1,4]dioxin-5-yl)(morpholino)methanone]: the IC50 is 10 to 100 nM.
In the case of `COc1cc(S(=O)(=O)N2CCOCC2)ccc1Nc1nc(NC2CCCC2)c2c(Cl)c[nH]c2n1` [Compound 55, 5-chloro-N4-cyclopentyl-N2-(2-methoxy-4-(morpholinosulfonyl)phenyl)-7H-pyrrolo[2,3-d]pyrimidine-2,4-diamine] it was above 1000 nM; in that of `COc1cc(S(=O)(=O)N2CCC(N3CCOCC3)CC2)ccc1Nc1nc(NC2CCCC2)c2c(Cl)c[nH]c2n1` [Compound 56, 5-chloro-N4-cyclopentyl-N2-(2-methoxy-4-((4-morpholinopiperidin-1-yl)sulfonyl)phenyl)-7H-pyrrolo[2,3-d]pyrimidine-2,4-diamine], 100 to 1000 nM; in that of `COc1cc(S(C)(=O)=O)ccc1Nc1nc(NC2CCCC2)c2c(Cl)c[nH]c2n1` [Compound 57, 5-chloro-N4-cyclopentyl-N2-(2-methoxy-4-(methylsulfonyl)phenyl)-7H-pyrrolo[2,3-d]pyrimidine-2,4-diamine], above 1000 nM.
With `COc1cc(S(=O)(=O)N2CCOCC2)ccc1Nc1nc(NC2CCCCC2)c2c(Cl)c[nH]c2n1` [Compound 58, 5-chloro-N4-cyclohexyl-N2-(2-methoxy-4-(morpholinosulfonyl)phenyl)-7H-pyrrolo[2,3-d]pyrimidine-2,4-diamine], the concentration for half-maximal inhibition (IC50) is above 1000 nM.
Turning to `COc1cc(S(C)(=O)=O)ccc1Nc1nc(NC2CCCCC2)c2c(Cl)c[nH]c2n1` [Compound 59, 5-chloro-N4-cyclohexyl-N2-(2-methoxy-4-(methylsulfonyl)phenyl)-7H-pyrrolo[2,3-d]pyrimidine-2,4-diamine], the IC50 was above 1000 nM.
Consider `COc1cc(S(=O)(=O)N2CCOCC2)ccc1Nc1nc(N[C@H]2CCOC2)c2c(Cl)c[nH]c2n1` [Compound 60, (S)-5-chloro-N2-(2-methoxy-4-(morpholinosulfonyl)phenyl)-N4-(tetrahydrofuran-3-yl)-7H-pyrrolo[2,3-d]pyrimidine-2,4-diamine], for which the IC50 is 100 to 1000 nM.
As for `COc1cc(S(=O)(=O)N2CCC(N3CCOCC3)CC2)ccc1Nc1nc(N[C@H]2CCOC2)c2c(Cl)c[nH]c2n1` [Compound 61, (S)-5-chloro-N2-(2-methoxy-4-((4-morpholinopiperidin-1-yl)sulfonyl)phenyl)-N4-(tetrahydrofuran-3-yl)-7H-pyrrolo[2,3-d]pyrimidine-2,4-diamine], the IC50 is above 1000 nM.
For `COc1cc(S(=O)(=O)N2CCOCC2)ccc1Nc1nc(NC2CCOCC2)c2c(Cl)c[nH]c2n1` [Compound 62, 5-chloro-N2-(2-methoxy-4-(morpholinosulfonyl)phenyl)-N4-(tetrahydro-2H-pyran-4-yl)-7H-pyrrolo[2,3-d]pyrimidine-2,4-diamine], the IC50 was in the range of 10 to 100 nM.
As to `COc1cc(S(C)(=O)=O)ccc1Nc1nc(NC2CCOCC2)c2c(Cl)c[nH]c2n1` [Compound 63, 5-chloro-N2-(2-methoxy-4-(methylsulfonyl)phenyl)-N4-(tetrahydro-2H-pyran-4-yl)-7H-pyrrolo[2,3-d]pyrimidine-2,4-diamine], the IC50 was in the range of 10 to 100 nM.
On to `COc1cc(S(C)(=O)=O)ccc1Nc1nc(NCC2CC2)c2c(Cl)c[nH]c2n1` [Compound 64, 5-chloro-N4-(cyclopropylmethyl)-N2-(2-methoxy-4-(methylsulfonyl)phenyl)-7H-pyrrolo[2,3-d]pyrimidine-2,4-diamine], for which the concentration for half-maximal inhibition (IC50) lay in the range of 100 to 1000 nM.
`O=C(c1ccc(Nc2nc(NCC3CC3)c3c(Cl)c[nH]c3n2)c2c1OCCO2)N1CCOCC1` [Compound 65, (8-((5-chloro-4-((cyclopropylmethyl)amino)-7H-pyrrolo[2,3-d]pyrimidin-2-yl)amino)-2,3-dihydrobenzo[b][1,4]dioxin-5-yl)(morpholino)methanone]: the IC50 was 10 to 100 nM.
In the case of `COc1cc(S(C)(=O)=O)ccc1Nc1nc(NCC2CCC2)c2c(Cl)c[nH]c2n1` [Compound 66, 5-chloro-N4-(cyclobutylmethyl)-N2-(2-methoxy-4-(methylsulfonyl)phenyl)-7H-pyrrolo[2,3-d]pyrimidine-2,4-diamine] it was above 1000 nM.
Turning to `COc1cc(S(=O)(=O)N2CCC(N3CCOCC3)CC2)ccc1Nc1nc(NCC2CCCC2)c2c(Cl)c[nH]c2n1` [Compound 67, 5-chloro-N4-(cyclopentylmethyl)-N2-(2-methoxy-4-((4-morpholinopiperidin-1-yl)sulfonyl)phenyl)-7H-pyrrolo[2,3-d]pyrimidine-2,4-diamine], the IC50 fell in the range of 100 to 1000 nM.
For the molecule `COc1cc(S(=O)(=O)N2CCOCC2)ccc1Nc1nc(NCCS(C)(=O)=O)c2c(Cl)c[nH]c2n1` [Compound 68, 5-chloro-N2-(2-methoxy-4-(morpholinosulfonyl)phenyl)-N4-(2-(methylsulfonyl)ethyl)-7H-pyrrolo[2,3-d]pyrimidine-2,4-diamine], the IC50 was below 10 nM.
As for `COc1cc(S(=O)(=O)N2CCC(N3CCOCC3)CC2)ccc1Nc1nc(NCCS(C)(=O)=O)c2c(Cl)c[nH]c2n1` [Compound 69, 5-chloro-N2-(2-methoxy-4-((4-morpholinopiperidin-1-yl)sulfonyl)phenyl)-N4-(2-(methylsulfonyl)ethyl)-7H-pyrrolo[2,3-d]pyrimidine-2,4-diamine], the IC50 is below 10 nM.
